Laboratory results: PMC4336329 (PLoS ONE, 2015)
The campaign covered roughly 310,000 compounds. About 14,000 (4.5%) showed an effect of 50% or more. The effect is printed as a negative number. Some of the results follow.

These molecules were tested against human ether-à-go-go-related gene (hERG) potassium channel (human, UniProt Q12809) (assay: primary screen, population patch clamp on CHO cells stably expressing hERG).
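Further: peak tail current of the secondary pulse compared with the same well before compound.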

human ether-à-go-go-related gene (hERG) potassium channel, sequence (Q12809 whole entry, looked up): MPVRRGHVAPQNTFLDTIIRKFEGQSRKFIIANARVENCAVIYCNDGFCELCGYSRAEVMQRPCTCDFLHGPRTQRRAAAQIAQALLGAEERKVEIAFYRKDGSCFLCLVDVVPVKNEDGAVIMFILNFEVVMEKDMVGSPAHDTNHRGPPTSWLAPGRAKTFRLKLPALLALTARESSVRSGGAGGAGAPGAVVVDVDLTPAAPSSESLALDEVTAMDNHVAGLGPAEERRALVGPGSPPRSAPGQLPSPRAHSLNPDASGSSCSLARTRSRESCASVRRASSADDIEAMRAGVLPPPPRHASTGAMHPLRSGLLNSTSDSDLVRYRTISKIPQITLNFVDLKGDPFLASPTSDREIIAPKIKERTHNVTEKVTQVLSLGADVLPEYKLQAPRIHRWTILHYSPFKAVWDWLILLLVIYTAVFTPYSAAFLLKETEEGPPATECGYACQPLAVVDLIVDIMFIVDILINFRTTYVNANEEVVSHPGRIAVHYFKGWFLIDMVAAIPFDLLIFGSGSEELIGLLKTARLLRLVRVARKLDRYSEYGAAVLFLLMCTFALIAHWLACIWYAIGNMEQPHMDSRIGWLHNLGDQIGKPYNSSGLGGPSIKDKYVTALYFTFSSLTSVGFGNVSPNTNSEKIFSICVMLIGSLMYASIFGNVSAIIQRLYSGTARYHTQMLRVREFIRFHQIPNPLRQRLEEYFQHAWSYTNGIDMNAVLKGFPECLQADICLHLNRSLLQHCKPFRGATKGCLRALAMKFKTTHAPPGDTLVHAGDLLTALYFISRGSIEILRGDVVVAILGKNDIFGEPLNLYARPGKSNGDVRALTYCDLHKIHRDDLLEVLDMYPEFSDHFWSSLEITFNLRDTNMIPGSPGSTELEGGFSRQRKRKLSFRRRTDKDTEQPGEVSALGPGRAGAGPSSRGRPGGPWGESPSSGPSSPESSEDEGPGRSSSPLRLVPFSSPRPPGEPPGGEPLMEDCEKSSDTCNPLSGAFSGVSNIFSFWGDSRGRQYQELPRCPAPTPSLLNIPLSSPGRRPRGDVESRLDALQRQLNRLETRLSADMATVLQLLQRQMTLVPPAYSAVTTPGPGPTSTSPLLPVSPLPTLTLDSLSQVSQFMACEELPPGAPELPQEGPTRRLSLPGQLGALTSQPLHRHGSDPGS

SMILES | hERG current change (%, negative = inhibition) at 10uM [%]
Cc1noc(C)c1COc1cccc(C(=O)N(C)Cc2nc3ccccc3c(=O)[nH]2)c1 | -23.5
CCCCNC(=S)NNC(=O)c1csc2c1CCC(C)C2 (stereo not shown) | -1.23
O=C(/C=C/c1ccccc1)Nc1nnc(-c2ccco2)o1 | -6.55
O=C(Nc1cccc(Br)c1)c1ccc2nc(N3C(=O)CCC3=O)sc2c1 | 16
Cc1ccccc1CN1N=C(/C=C/c2ccccc2)CCC1=O | 6.48
O=C(CCCn1c(=O)[nH]c2ccsc2c1=O)Nc1ccc(F)cc1 | -5.81
COC1CCN(Cc2c(C(=O)N3C[C@@H](C)O[C@@H](C)C3)nc3ccc(Cl)cn23)CC1 | 17.9
CSCCC(NC(=O)C1CCCCC1)c1nc2ccccc2[nH]1 (stereo not shown) | 2.93
O=C(CN(Cc1ccccc1)C(=O)CCl)c1cccc(Br)c1 | -23.8
Cc1cc(Cl)cc(C)c1OCCCCn1ccnc1 | -31.6
O=C(CN1C(=O)c2cccnc2Oc2ccc(Cl)cc21)Nc1ccc(F)cc1 | 5.39
CCN1CCN(Cc2ccc(NC(=O)c3cc(NC(=O)c4cncc(-c5cccs5)c4)cc(OC)c3)cc2C(F)(F)F)CC1.O=C(O)C(F)(F)F | 9.85
CCc1ccc(C(=O)NNC(=O)CCc2nc3ccccc3c(=O)[nH]2)cc1 | -7.54
COc1ccccc1N1CCN(/N=C/c2cccc(OC)c2O)CC1 | 26.6
N#Cc1ccccc1S(=O)(=O)N1CCN(C(=O)C2COc3ccccc3O2)CC1 (stereo not shown) | -27.8
CCCC1=[N+](CC(=O)c2ccc(C)cc2)CCn2cccc21.[Br-] | 5.96
CCOC(=O)c1cc(NC(=O)CN2CCCC2)cc(C(=O)OCC)c1 | -16.2
CCOC(=O)CC(=O)NC(CC(=O)OC)c1ccc(C(C)C)cc1 (stereo not shown) | -7.19
O=C(NCc1ccccn1)Nc1ccc(F)c(Cl)c1 | 4.11
C#Cc1ccc([C@@H]2C=C(C(=O)NC3CC3)O[C@H](OCc3ccc(CO)cc3)C2)cc1 | -3.96
COc1ccc(OC)c(-c2csc(NC(=O)C3c4ccccc4Oc4ccccc43)n2)c1 | -5.7
O=C(Nc1cccc(S(=O)(=O)N2CCOCC2)c1)c1ccccn1 | -3.42

SMILES | hERG current change (%, negative = inhibition) at 10uM [%]
O=C1c2ccccc2-c2c1cccc2C(=O)N1CCCCC1 | -22.3
COc1ccc(-c2sc3ccc(N4CCOCC4)cc3c2-c2ccc(OC)c(F)c2)cc1 | 4.81
Cc1cc(Cl)ccc1NC(=O)CCC(=O)O | -0.48
Cc1ccc(NCc2nnc(SCC(N)=O)o2)c(C)c1 | 14.6
N#Cc1c(NC(=O)CSc2ccccn2)oc(-c2ccccc2)c1-c1ccccc1 | -5.2
COc1cccc2cc(C(C)=O)c(=O)oc12 | 10.6
N#CC1=C(N)N(c2ccccc2)C(c2cccc([N+](=O)[O-])c2)C1(C#N)C#N (stereo not shown) | -29.6
Cc1nc(-c2ccc(F)cc2)c(CC(=O)N2CCN(S(=O)(=O)c3ccc(F)cc3)CC2)s1 | -24.1
Nc1nc(NCc2ccc(Cl)cc2)nc(NCCO)c1[N+](=O)[O-] | -13.4
Cc1ccc(CSC(Nc2ccc(F)cc2)=C(C#N)C#N)cc1 | 25.4
Cc1cc(C)cc(OC(=O)CN2C(=O)c3ccccc3C2=O)c1 | 8.9
COc1ccc(C)cc1NC(=O)CN1C(=O)C2CC=CCC2C1=O (stereo not shown) | 1.56
CCS(=O)(=O)c1nc(S(=O)(=O)c2ccc(Cl)cc2)c(NCc2ccco2)s1 | 16.8
Cc1cc(NS(=O)(=O)c2ccc(NC(=O)c3ccccc3C)cc2)no1 | 17.5
Cc1ccc(S(=O)(=O)N2CCC(=O)N(C(COCc3ccc(Cl)c(Cl)c3)Cc3ccccc3)CC2)cc1 (stereo not shown) | 10.2
CC(/C=C1\SC(=S)N(CCCC(=O)Nc2ccc(C(=O)O)cc2)C1=O)=C\c1ccccc1 | 1.57
CC(C)CCN1CCNC(=O)C1CC(=O)N(C)CCCN1CCOCC1 (stereo not shown) | 25.7
Cn1ccnc1SCC(=O)N1CCN(S(=O)(=O)c2ccccc2)CC1 | -0.264
Cc1ccc(N(CC(=O)N2CCN(C3CCCCC3)CC2)S(=O)(=O)c2cccnc2)cc1 | -37.3
CN(C(=O)COC(=O)c1cc2c(s1)CCCCC2)c1ccccc1 | -9.17
CCC(CC)C(=O)Nc1nnc(S(=O)(=O)N(CC)c2ccc(OC)cc2)s1 | 13.6
